# Reference: the supplement of paper PMC8728848
# Some of the results follow.
# B1: MpL2 (Macrolepiota procera) (protein)
# chain: MSTQVSSGQTYKITNVKAGTVIDLSGEDNKSIIGYPYHSGKNQQWTFNWTGKAWTLRSASSGSYLGIEGTPADGTRLVAVNDPFEWHIWRDEANENAFRIFVPFTNYNLRLSGYGDTTPGTPVQLWWTWEGLHQTWTIDRP
# Assays:
# Experiment in all cases: glycan array binding signal (z-score within array); higher = stronger binding
# Details in all cases: glycan notation: IUPAC condensed, linker removed; mutation: D109R
# [1] = target: Gal(b1-3)GlcNAc(b1-2)Man(a1-3)[Gal(b1-3)GlcNAc(b1-2)Man(a1-6)]Man(b1-4)GlcNAc(b1-4)GlcNAc
# Procedure, shortened: (§1)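 The binding signal is a Z-score computed within each array and averaged over linkers. Arrays of the same protein sequence at different concentrations or buffers were also averaged together. Data originate from 3228 arrays in the Consortium for Functional Glycomics database, kept only where the protein sequence was available.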
# [2] = target: Gal(b1-3)GlcNAc(b1-2)Man(a1-3)[Gal(b1-3)GlcNAc(b1-2)Man(a1-6)]Man(b1-4)GlcNAc(b1-4)[Fuc(a1-6)]GlcNAc
# Procedure, shortened: as §1
# [3] = target: Gal(b1-3)GlcNAc(b1-2)Man(a1-3)[GlcNAc(b1-4)][Gal(b1-3)GlcNAc(b1-2)Man(a1-6)]Man(b1-4)GlcNAc(b1-4)GlcNAc
# Procedure, shortened: as §1
# [4] = target: Gal(b1-3)GlcNAc(b1-2)[Gal(b1-3)GlcNAc(b1-6)]Man(a1-6)[Gal(b1-3)GlcNAc(b1-2)Man(a1-3)]Man(b1-4)GlcNAc(b1-4)GlcNAc
# Procedure, shortened: as §1
# [5] = target: Gal(b1-3)GlcNAc(b1-3)Gal(b1-3)GlcNAc
# Procedure, shortened: as §1
# [6] = target: Gal(b1-3)GlcNAc(b1-3)Gal(b1-4)Glc
# Procedure, shortened: as §1
# [7] = target: Gal(b1-3)GlcNAc(b1-3)Gal(b1-4)GlcNAc
# Procedure, shortened: as §1
# [8] = target: Gal(b1-3)GlcNAc(b1-3)Gal(b1-4)GlcNAc(b1-2)Man(a1-3)[Gal(b1-3)GlcNAc(b1-3)Gal(b1-4)GlcNAc(b1-2)Man(a1-6)]Man(b1-4)GlcNAc(b1-4)GlcNAc
# Procedure, shortened: as §1
# [9] = target: Gal(b1-3)GlcNAc(b1-3)Gal(b1-4)GlcNAc(b1-2)[Gal(b1-3)GlcNAc(b1-3)Gal(b1-4)GlcNAc(b1-6)]Man(a1-6)[Gal(b1-3)GlcNAc(b1-3)Gal(b1-4)GlcNAc(b1-2)Man(a1-3)]Man(b1-4)GlcNAc(b1-4)[Fuc(a1-6)]GlcNAc
# Procedure, shortened: as §1
# [10] = target: Gal(b1-3)GlcNAc(b1-3)Gal(b1-4)GlcNAc(b1-3)Gal(b1-4)GlcNAc(b1-2)[Gal(b1-3)GlcNAc(b1-3)Gal(b1-4)GlcNAc(b1-3)Gal(b1-4)GlcNAc(b1-6)]Man(a1-6)[Gal(b1-3)GlcNAc(b1-3)Gal(b1-4)GlcNAc(b1-3)Gal(b1-4)GlcNAc(b1-2)Man(a1-3)]Man(b1-4)GlcNAc(b1-4)[Fuc(a1-6)]GlcNAc
# Procedure, shortened: as §1
# [11] = target: Gal(b1-3)GlcNAc(b1-3)Gal(b1-4)GlcNAc(b1-6)[Gal(b1-3)GlcNAc(b1-3)]Gal(b1-4)Glc
# Procedure, shortened: as §1
# [12] = target: Gal(b1-3)GlcNAc(b1-3)Gal(b1-4)[Fuc(a1-3)]GlcNAc
# Procedure, shortened: as §1
# [13] = target: Gal(b1-3)GlcNAc(b1-3)Gal(b1-4)[Fuc(a1-3)]GlcNAc(b1-6)[Gal(b1-3)GlcNAc(b1-3)]Gal(b1-4)Glc
# Procedure, shortened: as §1
# [14] = target: Gal(b1-3)GlcNAc(b1-3)GalNAc
# Procedure, shortened: as §1
# [15] = target: Gal(b1-3)GlcNAc(b1-6)Gal(b1-4)GlcNAc
# Procedure, shortened: as §1
# [16] = target: Gal(b1-3)GlcNAc(b1-6)GalNAc
# Procedure, shortened: as §1
# [17] = target: Gal(b1-3)GlcNAc(b1-6)[Gal(b1-3)]GalNAc
# Procedure, shortened: as §1
# [18] = target: Gal(b1-3)GlcNAc6S
# Procedure, shortened: as §1
# [19] = target: Gal(b1-3)[Fuc(a1-4)]GlcNAc
# Procedure, shortened: as §1
# [20] = target: Gal(b1-3)[Fuc(a1-4)]GlcNAc(b1-2)Man
# Procedure, shortened: as §1
# [21] = target: Gal(b1-3)[Fuc(a1-4)]GlcNAc(b1-2)Man(a1-3)[Gal(b1-3)[Fuc(a1-4)]GlcNAc(b1-2)Man(a1-6)]Man(b1-4)GlcNAc(b1-4)[Fuc(a1-6)]GlcNAc
# Procedure, shortened: as §1
# [22] = target: Gal(b1-3)[Fuc(a1-4)]GlcNAc(b1-3)Gal(b1-3)[Fuc(a1-4)]GlcNAc
# Procedure, shortened: as §1
# [23] = target: Gal(b1-3)[Fuc(a1-4)]GlcNAc(b1-3)Gal(b1-4)[Fuc(a1-3)]GlcNAc
# Procedure, shortened: as §1
# [24] = target: Gal(b1-3)[Fuc(a1-4)]GlcNAc(b1-6)GalNAc
# Procedure, shortened: as §1
# [25] = target: Gal(b1-3)[GlcNAc(b1-6)]GalNAc
# Procedure, shortened: as §1
# [26] = target: Gal(b1-3)[Neu5Ac(a2-6)]GalNAc
# Procedure, shortened: as §1
# [27] = target: Gal(b1-3)[Neu5Ac(a2-6)]GlcNAc(b1-4)Gal(b1-4)Glc
# Procedure, shortened: as §1
# [28] = target: Gal(b1-3)[Neu5Ac(b2-6)]GalNAc
# Procedure, shortened: as §1
# [29] = target: Gal(b1-4)Gal
# Procedure, shortened: as §1
# [30] = target: Gal(b1-4)GalNAc(a1-3)[Fuc(a1-2)]Gal(b1-4)GlcNAc
# Procedure, shortened: as §1
# [31] = target: Gal(b1-4)GalNAc(b1-3)[Fuc(a1-2)]Gal(b1-4)GlcNAc
# Procedure, shortened: as §1
# [32] = target: Gal(b1-4)Glc
# Procedure, shortened: as §1
# [33] = target: Gal(b1-4)Glc6S
# Procedure, shortened: as §1
# [34] = target: Gal(b1-4)GlcNAc
# Procedure, shortened: as §1
# [35] = target: Gal(b1-4)GlcNAc(a1-6)Gal(b1-4)GlcNAc
# Procedure, shortened: as §1
# [36] = target: Gal(b1-4)GlcNAc(b1-2)Man
# Procedure, shortened: as §1
# [37] = target: Gal(b1-4)GlcNAc(b1-2)Man(a1-3)Man(b1-4)GlcNAc(b1-4)GlcNAc
# Procedure, shortened: as §1
# [38] = target: Gal(b1-4)GlcNAc(b1-2)Man(a1-3)[Gal(b1-4)GlcNAc(b1-2)Man(a1-6)]Man(b1-4)GlcNAc(b1-4)GlcNAc
# Procedure, shortened: as §1
# [39] = target: Gal(b1-4)GlcNAc(b1-2)Man(a1-3)[Gal(b1-4)GlcNAc(b1-2)Man(a1-6)]Man(b1-4)GlcNAc(b1-4)[Fuc(a1-6)]GlcNAc
# Procedure, shortened: as §1
# [40] = target: Gal(b1-4)GlcNAc(b1-2)Man(a1-3)[Gal(b1-4)GlcNAc(b1-2)Man(a1-6)][Gal(b1-4)GlcNAc(b1-4)]Man(b1-4)GlcNAc(b1-4)[Fuc(a1-6)]GlcNAc
# Procedure, shortened: as §1
# [41] = target: Gal(b1-4)GlcNAc(b1-2)Man(a1-3)[Gal(b1-4)GlcNAc(b1-2)Man(a1-6)][GlcNAc(b1-4)]Man(b1-4)GlcNAc(b1-4)[Fuc(a1-6)]GlcNAc
# Procedure, shortened: as §1
# [42] = target: Gal(b1-4)GlcNAc(b1-2)Man(a1-3)[GlcNAc(b1-2)Man(a1-6)]Man(b1-4)GlcNAc(b1-4)GlcNAc
# Procedure, shortened: as §1
# [43] = target: Gal(b1-4)GlcNAc(b1-2)Man(a1-3)[GlcNAc(b1-4)][Gal(b1-4)GlcNAc(b1-2)Man(a1-6)]Man(b1-4)GlcNAc(b1-4)GlcNAc
# Procedure, shortened: as §1
# [44] = target: Gal(b1-4)GlcNAc(b1-2)Man(a1-3)[Man(a1-6)]Man(b1-4)GlcNAc(b1-4)GlcNAc
# Procedure, shortened: as §1
# [45] = target: Gal(b1-4)GlcNAc(b1-2)Man(a1-6)Man(b1-4)GlcNAc(b1-4)GlcNAc
# Procedure, shortened: as §1
binder,measurement,setting,value
B1,glycan array binding signal (z-score),[1],2.09
same,glycan array binding signal (z-score),[2],0.858
same,glycan array binding signal (z-score),[3],2.2
same,glycan array binding signal (z-score),[4],3.46
same,glycan array binding signal (z-score),[5],0.471
same,glycan array binding signal (z-score),[6],0.863
same,glycan array binding signal (z-score),[7],0.977
same,glycan array binding signal (z-score),[8],3.2
same,glycan array binding signal (z-score),[9],2.62
same,glycan array binding signal (z-score),[10],3.37
same,glycan array binding signal (z-score),[11],3.65
same,glycan array binding signal (z-score),[12],0.627
same,glycan array binding signal (z-score),[13],2.47
same,glycan array binding signal (z-score),[14],-0.183
same,glycan array binding signal (z-score),[15],1.78
same,glycan array binding signal (z-score),[16],-0.196
same,glycan array binding signal (z-score),[17],-0.242
same,glycan array binding signal (z-score),[18],-0.242
same,glycan array binding signal (z-score),[19],-0.267
same,glycan array binding signal (z-score),[20],-0.23
same,glycan array binding signal (z-score),[21],-0.241
same,glycan array binding signal (z-score),[22],-0.248
same,glycan array binding signal (z-score),[23],-0.267
same,glycan array binding signal (z-score),[24],-0.163
same,glycan array binding signal (z-score),[25],-0.246
same,glycan array binding signal (z-score),[26],-0.287
same,glycan array binding signal (z-score),[27],-0.253
same,glycan array binding signal (z-score),[28],-0.244
same,glycan array binding signal (z-score),[29],-0.256
same,glycan array binding signal (z-score),[30],-0.164
same,glycan array binding signal (z-score),[31],-0.107
same,glycan array binding signal (z-score),[32],-0.244
same,glycan array binding signal (z-score),[33],-0.229
same,glycan array binding signal (z-score),[34],0.003
same,glycan array binding signal (z-score),[35],12.2
same,glycan array binding signal (z-score),[36],-0.249
same,glycan array binding signal (z-score),[37],-0.085
same,glycan array binding signal (z-score),[38],0.999
same,glycan array binding signal (z-score),[39],0.18
same,glycan array binding signal (z-score),[40],1.38
same,glycan array binding signal (z-score),[41],0.239
same,glycan array binding signal (z-score),[42],-0.001
same,glycan array binding signal (z-score),[43],-0.094
same,glycan array binding signal (z-score),[44],-0.118
same,glycan array binding signal (z-score),[45],-0.201
